Measured values published in the supplement of paper PMC3334620.
The full ranking holds about 33,000 sequences; the median of “E-score (-0.5 to 0.5)” is about -0.054, and the highest 2% start at about 0.35. The list shows a part of the results.

The sequences below were run against T1, Stb5 (UniProt P38699) (assay: PBM E-score (8-mer binding enrichment) (E-score (-0.5 to 0.5)); higher = stronger / more preferred TF binding; most listed sequences are background and not binding sites). Settings: protein concentration: 200 nM; construct: GST-full length.
T1 sequence: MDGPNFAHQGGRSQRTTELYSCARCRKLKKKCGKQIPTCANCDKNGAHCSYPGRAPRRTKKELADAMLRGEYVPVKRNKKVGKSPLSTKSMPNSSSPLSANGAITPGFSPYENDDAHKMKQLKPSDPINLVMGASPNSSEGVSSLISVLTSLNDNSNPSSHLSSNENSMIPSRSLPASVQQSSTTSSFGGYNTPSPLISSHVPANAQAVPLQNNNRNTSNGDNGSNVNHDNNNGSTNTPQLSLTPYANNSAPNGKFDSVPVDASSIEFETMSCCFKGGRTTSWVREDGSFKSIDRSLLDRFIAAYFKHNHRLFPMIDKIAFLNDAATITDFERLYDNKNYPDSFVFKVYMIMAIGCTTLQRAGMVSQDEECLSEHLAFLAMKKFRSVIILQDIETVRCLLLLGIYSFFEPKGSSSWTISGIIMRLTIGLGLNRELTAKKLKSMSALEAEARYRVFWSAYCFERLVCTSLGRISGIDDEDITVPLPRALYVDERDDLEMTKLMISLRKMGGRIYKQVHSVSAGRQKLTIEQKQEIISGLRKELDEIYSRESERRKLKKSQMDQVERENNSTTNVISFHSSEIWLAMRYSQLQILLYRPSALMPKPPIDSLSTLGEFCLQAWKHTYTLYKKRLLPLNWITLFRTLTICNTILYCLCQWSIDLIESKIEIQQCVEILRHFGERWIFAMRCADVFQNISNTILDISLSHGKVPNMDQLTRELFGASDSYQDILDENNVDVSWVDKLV
Method in brief: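 Bound GST-tagged yeast transcription factors, applied at about 100-200 nM to double-stranded universal all-10-mer Agilent arrays, were detected with fluorescent anti-GST. Scans were normalised with masliner. A modified Wilcoxon-Mann-Whitney statistic, the E-score, was assigned to each ungapped eight-base word pooled with its reverse complement by the Universal PBM Analysis Suite.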

Point of comparison: ACCCTCTC, “PBM E-score” value -0.22. Against it:
- CTAGCCAG — lower, -0.248
- CAGCATTA — higher, -0.0945
- AAGCACAA — lower, -0.232
- AATCTCGC — higher, -0.121
- AACTTTTG — higher, -0.174
- GGCTATAC — higher, 0.133
- ACCTTTTG — higher, -0.00107
- CGGAAACG — higher, 0.00282
- AGTGAGGG — higher, -0.2
- CTCCAGTC — higher, -0.0994
- ACGGCATA — higher, 0.0909
- ATCCACTC — lower, -0.227
- TCGAGCCA — lower, -0.261
- AACAGTTG — higher, -0.0985
- ATTAGCGC — higher, 0.0864
- ACCCGCCT — higher, 0.062
- AAACGTAG — higher, -0.145
- AAGGACTC — higher, -0.0704
- CGCAGGAC — higher, 0.1
- CATATATG — higher, -0.101
- TAGGCTGA — higher, -0.123
- AAAAGTTG — higher, -0.143
- TAGGGCCA — lower, -0.283
- CAAACTCA — higher, -0.054
- ACCGTCAG — higher, 0.103
- CGCCAATC — higher, -0.114
- CCCACTCG — higher, -0.131
- ATTAGTTC — higher, 0.0669
- ACCTTTCC — higher, 0.0877
- CGAGGGGC — higher, -0.0727
- ACTAGCGG — higher, 0.256
- GGTGAAGA — higher, 0.0224
- ATCGGACG — higher, 0.305
- CAAGGAAA — higher, -0.063
- TAGAGTCA — higher, -0.126
- ATGCTCCC — higher, -0.0728
- GTTTTCCA — higher, -0.0296
- GGCCCTGA — higher, -0.0333
- TATGTTAA — higher, 0.00658
- CGCGACTA — higher, 0.184
- CGCTCTAA — higher, 0.0643
- GACGAGAC — higher, -0.0829
- AATGTCAT — higher, -0.0614
- AAAAGACT — higher, 0.00221
- TACTTGGA — higher, -0.149
- ATACAGCA — higher, -0.00496
- CAGCCGGG — higher, 0.00439
- GTGACGGA — higher, 0.272
- CGTATTAC — higher, 0.188
- GACCCTAA — higher, -0.0104
- GAGTTTAA — higher, 0.12
- CGCTTGAC — higher, -0.133
- CGGATGAC — higher, 0.0711
- CTCTGAAC — lower, -0.248
- CGCATTGA — higher, 0.151
- ATTCAGGG — higher, -0.0992
- TACGGTGA — higher, 0.16
- CGCCCTCC — higher, 0.0961
- AGCGGGCC — higher, 0.23
- GCCAGGGC — higher, -0.011
- AAGGACTA — lower, -0.29
- CTCTGCCC — higher, -0.111
- CTCAGCAG — lower, -0.262
- CGTTCACA — higher, -0.0592
- CCGAACAA — higher, 0.227
- AAGGTTGA — higher, -0.141
- CACCAGGA — higher, -0.0163
- AGGGGGAA — higher, -0.101
- AATCTAGT — higher, 0.0539
- ACTTCTTC — lower, -0.225
- AAGGTCAC — lower, -0.222
- CCCCTCTA — higher, -0.0762
- CCTGCTGA — higher, -0.216
- TCAGAAAA — lower, -0.27
- GAGCAAGC — higher, -0.168
- AACTACAG — higher, 0.0118
- GATACGTA — higher, -0.0463
- ATCTTTCC — higher, -0.0409
- ATGTGTGA — higher, -0.163
- AAGTAATC — higher, 0.0448
- AGTGAAAG — higher, -0.203
- ATTCTCGC — lower, -0.235
- CAAGGTCA — higher, -0.111
- CCATGCCA — higher, -0.0013
- CAAACTAG — lower, -0.267
- ATGAACAT — higher, -0.197
- CAGGATAG — higher, -0.12
- AGGTGCCC — higher, -0.142
- AGAAAGAG — higher, -0.102
- GAACAGTC — higher, -0.132
- ATCTTGGC — higher, -0.0726
- CCCGTTTC — higher, 0.231
- GGCATGGA — higher, 0.0843
- ATCCATTG — higher, -0.123
- CTGAATGC — higher, -0.131
- AGCGCCAG — higher, 0.0993
- ACTCAGGC — higher, -0.117
- CCTGTCAA — higher, -0.145
- AGCACCCT — higher, -0.217
- GTTATGTA — higher, 0.181
- TCCAGGGA — lower, -0.324
- ACAGGGCG — higher, 0.111
- CACACTCC — higher, 0.0222
- AAGGGCGA — higher, -0.172
- AGGAGCTG — lower, -0.254
- ATCCCGTG — higher, 0.19
- AACATATC — higher, 0.177
- GCTCGGGA — higher, 0.137
- CGGGAGAC — higher, 0.0383
- GGATAGAA — higher, 0.14
- CCTGCGAG — higher, -0.0967
- GCTAGACA — higher, 0.0147
- GCCCTGCA — higher, -0.121
- CGGCTGTA — higher, 0.249
- AAGATACC — higher, 0.168
- AGACGTAA — lower, -0.259
- AACCGAAG — higher, 0.0358
- CTCCTGAA — higher, 0.0446
- TCGAATAA — higher, -0.125
- CGCCCAAG — higher, -0.0356
- CTCGGTCC — higher, 0.242
- CCAGACAC — higher, -0.145
- CATCGCCC — higher, -0.126
- CTAAACTA — higher, -0.11
- CGGTTACA — higher, 0.278
- CGTGATAG — higher, -0.0805
- CATTACCC — higher, -0.00203
- ACCGAGAT — higher, 0.208
- TGATTAAA — higher, 0.0509
- ACAGGCTA — higher, -0.205
- ATTTTAAG — higher, 0.0501
- CATTTTCG — higher, 0.0696
- AAGGGCGT — higher, -0.14
- AGGTAACG — higher, 0.0582
- CACTCTCG — higher, -0.0728
- TCGGGTAA — higher, -0.0182
- CGGCCTGC — higher, -0.0229
- GCCTAAAC — higher, -0.162
- GGCGGCAA — higher, 0.307
- ATGGCCGA — higher, 0.324
- GCGGAGAC — higher, 0.305
- AGCGCGTG — higher, -0.116
- AGTAGTGC — higher, -0.0336
- GCAACATA — higher, -0.0704
- AGTGGCGA — higher, 0.0076
- CGGAAGCC — higher, 0.11
- GTGTCTGA — higher, -0.0383
- GTGTCCTA — higher, -0.0179
- GCGAAGAA — higher, -0.0935
- ATTCCACG — higher, -0.198
- TGACACCA — higher, -0.123
- AGGCCCAC — higher, -0.201
- AAGCCGAC — higher, 0.344
- AACTTGGA — higher, 0.0988
- ACTTCCGA — higher, 0.262
- CCACCTCC — higher, 0.015
- CGTTCAGC — higher, -0.0774
- ACCGTCAA — higher, 0.289
- GAATACGC — higher, 0.0638
- AACCGCGA — higher, 0.272
- AGGGCGAC — higher, -0.124
- GGGATGAC — higher, -0.0348
- CCAGCTGG — higher, -0.159
- TCACCGCA — higher, 0.305
- CGTCATAG — higher, 0.0607
- GAACATAA — higher, 0.052
- ACTCACCA — lower, -0.29
- ACGCTGAG — higher, -0.148
- AAAATACC — higher, 0.316
- AAGACCCC — higher, 0.11
- CGAATCAC — higher, -0.0468
- TAATGGAA — higher, 0.00151
- AAAAGTAT — higher, -0.128
- AAGGAACC — higher, 0.00712
- ACGGCGTA — higher, 0.0801
- GTGTTCTA — higher, 0.0717
- ATTTGAGA — higher, -0.076
- AGCAAGCT — lower, -0.363
- AATCAACC — higher, -0.0664
- AGAAGTGC — higher, -0.119
- AACCTCGA — higher, -0.144
- CTAAGAGC — higher, 0.0408
- AACGTTAG — higher, -0.0282
- GGGTACTA — higher, -0.0611
- CACTCCTA — higher, 0.00265
- ATAAAAAA — higher, -0.115
- CGTGGCGA — higher, -0.0624
- TCCGCACA — higher, 0.0913
- CTAAATTC — higher, -0.0582
- CGGTTCAC — higher, 0.00031
- AAGCGGAT — higher, 0.297
- AAGACGTA — lower, -0.223
- GACTAAGA — higher, 0.171
- ATGAGGTA — higher, -0.132
- AGGTGGAT — higher, -0.138
- ACGATGAT — higher, -0.135
- CTTTTCTA — higher, -0.203
- ATCAGTTA — higher, -0.044
- TAGACTGA — higher, -0.0526
- CTTCTAAA — higher, -0.0754
- CGATCCAG — higher, -0.194
- GTTCGGCA — higher, 0.0778
- AGCAGAGC — higher, -0.159
- AGGACGTC — higher, -0.144
- CCTCTAAA — higher, -0.196
- AGCATCTC — higher, -0.195
- GCCTTGCA — lower, -0.246
- ATAAAGGG — higher, 0.0937
- ACAATGCC — higher, 0.125
- GCACAAAA — higher, -0.0316
- GTCCCTAA — higher, -0.0488
- CTCGCAAA — lower, -0.304
- GACTGTAC — higher, -0.111
- CACCATCG — higher, -0.0738
- CCTGGGAA — higher, -0.168
- ACGGTCAA — higher, 0.126
- CCGATTCG — higher, 0.157
- ATAACCCG — higher, 0.228
